PubChem BioAssay AID488969 (Vanderbilt High Throughput Screening Facility, 2010)
Over roughly 110,000 compounds, “z-score” has its median near -0.1; the highest 2% begin near 2. The list shows a part of the results. The source made the active and inactive calls.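 Rule for the calls: active = z-score in the third read window above 3 or below -3; inactive = the rest.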

target: Metabotropic glutamate receptor 8 (Rattus norvegicus) (UniProt P70579); test: rat mGluR8 modulators via GIRK flux, primary screen, cell-based, thallium flux, HTS (AID 488969); conditions: HEK293 rat mGluR8, GIRK (G protein-gated inwardly rectifying potassium channel) thallium flux, FluoZin2; at 10 µM; stronger effect = higher value; submaximal glutamate (EC20) added with thallium
Sequence of UniProt P70579 (P70579 whole entry, looked up): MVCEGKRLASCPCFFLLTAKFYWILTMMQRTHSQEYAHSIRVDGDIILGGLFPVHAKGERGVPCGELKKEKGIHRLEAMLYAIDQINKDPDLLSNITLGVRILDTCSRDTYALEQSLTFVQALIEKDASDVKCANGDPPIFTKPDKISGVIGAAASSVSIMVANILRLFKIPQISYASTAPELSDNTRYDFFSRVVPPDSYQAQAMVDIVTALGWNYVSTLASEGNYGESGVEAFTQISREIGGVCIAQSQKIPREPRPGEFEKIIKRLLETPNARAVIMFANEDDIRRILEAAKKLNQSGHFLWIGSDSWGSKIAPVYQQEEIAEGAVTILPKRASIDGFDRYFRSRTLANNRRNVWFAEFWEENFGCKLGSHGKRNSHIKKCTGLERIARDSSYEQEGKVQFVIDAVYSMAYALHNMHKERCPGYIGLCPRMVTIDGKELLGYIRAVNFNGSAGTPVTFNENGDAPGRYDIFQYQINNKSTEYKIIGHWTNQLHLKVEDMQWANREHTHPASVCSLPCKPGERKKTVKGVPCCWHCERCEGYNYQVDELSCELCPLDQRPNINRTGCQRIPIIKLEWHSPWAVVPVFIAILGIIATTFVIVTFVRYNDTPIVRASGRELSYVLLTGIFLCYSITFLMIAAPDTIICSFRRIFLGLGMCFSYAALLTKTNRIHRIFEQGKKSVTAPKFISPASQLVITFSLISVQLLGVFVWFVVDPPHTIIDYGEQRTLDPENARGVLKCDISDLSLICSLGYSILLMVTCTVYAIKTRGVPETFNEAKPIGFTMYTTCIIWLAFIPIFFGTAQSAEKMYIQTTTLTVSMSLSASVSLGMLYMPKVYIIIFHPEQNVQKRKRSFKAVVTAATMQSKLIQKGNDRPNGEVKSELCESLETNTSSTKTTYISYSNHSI

Structure (SMILES)	z-score
CCOc1cc(CO)cc(Br)c1OCC(=O)O	-0.3
O=C(/C=C/c1ccc(Cl)cc1Cl)N(Cc1ccccc1)C1CCS(=O)(=O)C1 (stereo unspecified)	-0.748
O=c1oc2ccccc2c(Nc2ccccc2)c1[N+](=O)[O-]	0.27
CC1(C)COC(c2cccc(C3=NC(C)(C)CO3)n2)=N1	0.19
Cc1cc(C(=O)CSc2nnc(N)s2)c(C)n1CCc1ccc(Cl)cc1	1.21
COc1ccc(C(=O)CN2C(=O)NC(C)(c3ccccc3)C2=O)cc1OC (stereo unspecified)	-0.173
CC12CC(NC(=O)N1c1cccc(C(=O)NCc3ccccc3)c1)c1ccccc1O2 (stereo unspecified)	-0.344
COCCNC(=O)c1cc2c(=O)n(C)c3ccccc3c2n1C	-0.524
Cc1ccc(-c2cc(C(=O)OCC(=O)Nc3ncc(C(F)(F)F)cc3Cl)c3ccccc3n2)cc1	-0.308
CC(Sc1nc2ccccc2s1)C(=O)NC1CCCc2ccccc21 (stereo unspecified)	-0.216
O=C(C(Cc1ccccc1)n1cccc1)N1CCCCCC1 (stereo unspecified)	0.284
CCOCCCn1c(C)nc2c(c1=O)c1nc3ccccc3nc1n2CCC1=CCCCC1	-0.551
CC(C)CNC(=O)COC(=O)CCC(=O)c1ccc(F)cc1	-0.0187
COCCSc1nc2sc3c(c2c(=O)n1-c1ccccc1)CCN(C)C3	1.74
COc1ccc(-c2cc(C(=O)Nc3c(C)nn(Cc4ccccc4Cl)c3C)no2)cc1	-0.115
CCn1c(C)cc(/C=C2\NC(=O)N(Cc3ccccc3)C2=O)c1C	-0.148
COC(=O)c1ccc(OC(=O)CCN2C(=O)C3CCCCC3C2=O)cc1 (stereo unspecified)	-0.48
Cc1cc(NC(=O)CCSc2nc(-c3ccco3)cc(C(F)(F)F)n2)no1	-0.181
COc1cc(/C=C2\SC(c3ccc(C)cc3)=NC2=O)cc(OC)c1O	-0.229
Cc1ccccc1CN1CCN(CC(=O)NCCCN2CCN(c3ccc(F)cc3)CC2)C1=O	-0.818
Cc1c(/C=C2\SC(=O)N(CC(=O)Nc3ccc4c(c3)OCO4)C2=O)c2ccccc2n1C	0.0495
CCOC(=O)c1cc2c(ccn2C)n1CC(=O)N1CCCC(C)C1 (stereo unspecified)	-0.438
Cc1cc(Cl)c(OCCCCNC(C)(C)C)c(Br)c1	-0.101

Structure (SMILES)	z-score
CCn1c(=O)n(CC(=O)N2CCN(c3ccccc3F)CC2)c(=O)c2ccccc21	-0.454
CN(C)c1ccc(-c2nc3n(n2)C(c2cccnc2)C2=C(CC(C)(C)CC2=O)N3)cc1 (stereo unspecified)	0.11
COC(=O)Nc1nc(-c2ccccc2)c(C(=O)c2ccccc2)s1	-0.123
CCCS(=O)(=O)N1CCN(Cc2ccc3c(c2)c2ccccc2n3CC)CC1	0.291
CCn1c(SCC(=O)c2ccc(Cl)cc2)nnc1-c1cccs1	-0.547
Cc1nc(NC(=O)COC(=O)C(NC(=O)c2ccco2)C(C)C)c(Cl)cc1Cl (stereo unspecified)	-0.829
O=C(N/N=C/c1ccc(O)cc1)c1csc2c1CCCC2	-0.827
O=C(CCCCCNS(=O)(=O)c1ccc(Br)cc1)NCCN1CCOCC1	0.263
Cc1ccc(C(C(=O)NC2CCCC2)N(Cc2ccco2)C(=O)CCC(=O)Nc2ccccn2)cc1 (stereo unspecified)	-0.557
Cc1ccc(-n2nnc3c(=O)n(Cc4ccccc4C)cnc32)cc1	0.631
O=C(CN(c1ccc(Cl)cc1)S(=O)(=O)c1ccc(Cl)c([N+](=O)[O-])c1)NCCc1ccc(F)cc1	-0.126
Cc1cccc2c1OCC/C2=N\NC(=O)COc1ccccc1	0.472
CN(Cc1cc2ccccc2[nH]c1=O)C(=O)C1CCCCC1	-0.113
CC1=C(C(N)=O)C(c2cccnc2)n2nc(-c3cccc(Cl)c3)nc2N1 (stereo unspecified)	0.192
O=C(NCc1cccnc1)C1c2ccccc2C(=O)N1Cc1ccco1 (stereo unspecified)	-0.12
CN(C)C(/C=C/Nc1ccccc1F)=C(C#N)C#N	0.0306
O=C(NN=C1CCCCCCC1)C(=O)NC1CCCCC1	0.327
CCOc1ccc(N/C(SC)=C(/C#N)C(N)=O)cc1	-0.125
CCCC(=O)NC(NC(=S)Nc1ccc(N=Nc2ccccc2)cc1)C(Cl)(Cl)Cl (stereo unspecified)	1.78
CC(=O)Nc1ccc(OCC=C(Cl)Cl)cc1	7.27e-06
C(=N\N1CCN(C2c3ccccc3-c3ccccc32)CC1)/c1cccnc1	-0.385
CS(=O)(=O)N1CCN(C(=O)C2c3ccccc3Oc3ccccc32)CC1	-0.193
CCOc1ccccc1N(CC(=O)N1CCOCC1)S(=O)(=O)c1ccccc1	0.28

Structure (SMILES)	z-score
C/C(Nc1ccc(Cl)cc1)=C(/C#N)C(N)=O	0.0897
Cc1cc(C)cc(Cn2ncc(Cl)c(Cl)c2=O)c1	-0.081
O=c1c2ccccc2nnn1CSc1nnc2sc3ccccc3n12	-0.991
COc1ccccc1OCCSc1nnc(C)n1-c1ccccc1	-0.339
CCOC(=O)CSCC(NC(=O)OC(C)(C)C)C(=O)OCC (stereo unspecified)	-0.352
Cc1cc(C)n2nc(-c3sccc3-n3cccc3)cc2n1	-0.232
N#Cc1cccc(C(c2nnnn2CCc2ccccc2)N2CCN(C3CCCCC3)CC2)c1 (stereo unspecified)	-0.0112
COc1ccc(-c2nc3ccc([N+](=O)[O-])cc3[nH]2)cc1	-0.634
Cc1ccnc(N2C(=O)C3C4CC(C(Br)C4Br)C3C2=O)c1 (stereo unspecified)	0.0912
COC(=O)c1ccc(NC(=O)CSc2nnc(COc3ccccc3)n2C)cc1	active: 11.8
COCCNC(=O)C(c1ccc(F)cc1)N(CCOC)C(=O)CCC(=O)Nc1nccs1 (stereo unspecified)	-0.387
Nc1nc(NC(=O)C(Cl)(Cl)Cl)nn1-c1ccccc1	-0.448
COc1ccc(NC(=O)Nc2ccc3c(c2)N(C)C(=O)CS3)cc1Cl	-0.0405
COCCSc1ccccc1C(=O)N1CCCC1	1.26
Cc1cc(C(=O)NCc2cccnc2)cs1	0.217
CCN(c1ccc(NC(=O)COC(=O)c2cccs2)cc1)C(C)C	-0.152
Nc1nc2n(n1)C(c1ccco1)CC(c1ccccc1)N2 (stereo unspecified)	-0.0773
Cn1ncc2c1ncn1nc(COc3ccc4ccccc4c3)nc21	-0.0477
Cc1sc2ncnc(OCC(=O)NC(C)C)c2c1C	-0.178
CSc1nc2ccc(S(=O)(=O)N3CCCCC3)cc2s1	-0.209
COc1ccc(S(=O)(=O)Nc2cccc(S(=O)(=O)N3CCCCCC3)c2)cc1	-0.405
CC(=O)Nc1cccc(N2CCCC2=O)c1	0.353
Cc1ccc(-n2nc(C)c(C3(O)C(=O)N(C)c4ccccc43)c2N)cc1 (stereo unspecified)	-0.211

Structure (SMILES)	z-score
Clc1ccc(-c2nnc3sc(-c4ccc(Br)o4)nn23)cc1	-0.394
O=C(NC1CS(=O)(=O)CC1NCc1ccco1)c1ccccc1 (stereo unspecified)	0.308
O=c1c2ccccc2nc(CSc2nnnn2-c2ccccc2)n1-c1ccccc1Cl	-1.22
CC(=O)NS(=O)(=O)c1ccc(N=c2ssc3c2-c2cc(C)ccc2NC3(C)C)cc1	-0.278
O=C(/C=C/c1cccs1)c1ccc(NC(=O)c2cccc(Br)c2)cc1	0.0521
Nc1nnc(CSCc2ccccc2)s1	-0.29
Cc1ccc(C(=O)O/N=C2\CCSc3ccc(C)cc32)cc1	0.0502
COc1ccccc1N1CCN(C(=O)c2sc3nc(-c4ccccc4)cn3c2C)CC1	-0.533
O=C(c1cnc2n(c1=O)CCS2)N1CCN(c2ccc([N+](=O)[O-])cc2)CC1	0.292
O=C(O)c1cc(NS(=O)(=O)c2cccc3ccccc23)ccc1O	-0.171
CCCOc1cc(N(CC)CC)ccc1/C=C(/C#N)c1nc2ccc(C)cc2[nH]1	-0.494
COC(=O)C1=C(Nc2ccc(OC)cc2)C=C(C)C(C(=O)OC)C1c1ccc(C)cc1 (stereo unspecified)	0.568
CC1CC(C)CN(CC(O)COCCOc2ccc(Br)cc2)C1 (stereo unspecified)	0.701
CCN(CC)CCNC(=O)Cn1nc(Cc2ccccc2)c2ccccc2c1=O	0.25
C=C(C)CSc1nc2nc(C)c(Br)cc2[nH]1	-0.373
CCCCNC1=C(Br)C(=O)CC(C)(C)C1	-0.0723
Cc1ccccc1C(=O)NNC(=O)c1ccoc1C	0.108
O=C1NC2(C=Cc3c(ccc4ccccc34)O2)Oc2ccccc21 (stereo unspecified)	-0.237
COc1cc2ccccc2cc1C(=O)N1CCN(C)CC1	0.651
Cc1cc(Cl)ccc1NC(=S)Nc1ccccn1	-0.568
CCC(=O)Nc1ccc(S(=O)(=O)N2CCOCC2)cc1	-0.624
O=C(N/N=C/C=C/c1ccccc1)c1n[nH]c2c1CCC2	-0.493
Cc1cc(C(=O)N/N=C/c2cc([N+](=O)[O-])cc(C)c2O)n[nH]1	-0.163

Structure (SMILES)	z-score
C=CCOc1c2ccc(C(=O)NCCc3ccc(C)cc3)cc2nn1C	0.0834
CCCCn1ccc(O)c(Cc2ccc(F)cc2)c1=O	0.0131
CC(C)CCNc1nc2c(cc1C#N)COC(C)(C)C2	-0.377
CN(CC(=O)Nc1ccncc1)S(=O)(=O)c1ccccc1	-0.263
CCOC(=O)c1[nH]c2ccc(Cl)cc2c1NC(=O)/C=C/c1ccc2c(c1)OCO2	0.296
CC(=O)C1=C(O)C(=O)N(c2ccc(C)cc2)C1c1ccccn1 (stereo unspecified)	-0.234
O=c1c2ccccc2nc(SCc2cc(=O)n3ccsc3n2)n1CCCO	-0.128
Cc1noc2c1C(c1ccc(N(C)C)cc1)C1=C(CC(C)(C)CC1=O)N2 (stereo unspecified)	-0.142
Cc1[nH]c2c(C)cccc2c1CCNC(=O)c1ccc2c(c1[N+](=O)[O-])C(=O)c1ccccc1C2=O	-0.202
O=C(c1ccc(Cl)c(F)c1F)N1CCCC1	0.212
COc1cccc(-c2cc3nc(-c4ccccc4)cc(N4CCC5(CC4)OCCO5)n3n2)c1	-0.278
Cc1ccccc1C(=O)NCc1nnc(SCC(=O)N2CCN(c3ccccc3)CC2)n1C	-0.0488
CCOc1cc(C(=S)N2CCOCC2)ccc1OC	0.167
CN(CCNC(=O)C1CCN(S(=O)(=O)N2CCOCC2)CC1)CCc1ccccc1	-1.44
CCN(CC)S(=O)(=O)c1cccc(C(=O)OCC(=O)Nc2ccccc2OC(F)F)c1	-0.984
CC(C)(C)n1nnnc1C(c1cccs1)N1CCCC2(CCCCC2)C1 (stereo unspecified)	0.125
CCOc1cc(/C=N/NC(=O)c2ccncc2)cc(Cl)c1OS(C)(=O)=O	-0.74
O=C1CCCCN1CCc1c[nH]c2ccccc12	0.0189
CON/C=C(\C=Nc1ccc(C(F)(F)F)cc1)c1ncc(C(F)(F)F)cc1Cl	-0.109
